Reference: PubChem BioAssay AID588579 (National Center for Advancing Translational Sciences (NCATS), 2011)
Several values for one entry are separate records, joined by “and”; a condition that tells them apart may be missing. Identical values can stand only once. In all, about 400,000 compounds went through this assay and about 2,200 (0.55%) were called active. The inconclusive results got no clear call from the source; some entries with a clear call stand among them for comparison. Calls follow the shape of the dose curve; as a rule, active = well fitted inhibition curve with a large enough effect; inconclusive = small, poorly fitted or top-dose-only effect, or another doubt; inactive = no such curve, though single readings can be large or run the other way. Where the call is inconclusive, the potency comes from a doubtful curve fit.

Target: DNA polymerase kappa (Homo sapiens) (UniProt Q9UBT6)
Assay: qHTS for Inhibitors of Polymerase Kappa
Conditions: purified Pol kappa, fluorescent DNA synthesis assay, 10 min; series mostly up to 107 µM; activity, negative = inhibition: at the top concentration
Method in brief: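 Activity was followed as the change in fluorescence between reads at 0 and 10 min after starting the reaction with 50 nM substrate. Beforehand, 10 nM polymerase had been preincubated with compound for 15 min at room temperature.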
% is scaled to controls: 0 for no effect and ±100 for the full control effect; potency is read from the fitted curve at half-maximal effect; tags tell the direction and shape of the fitted curve.

UniProt Q9UBT6, sequence (Q9UBT6 whole entry, looked up): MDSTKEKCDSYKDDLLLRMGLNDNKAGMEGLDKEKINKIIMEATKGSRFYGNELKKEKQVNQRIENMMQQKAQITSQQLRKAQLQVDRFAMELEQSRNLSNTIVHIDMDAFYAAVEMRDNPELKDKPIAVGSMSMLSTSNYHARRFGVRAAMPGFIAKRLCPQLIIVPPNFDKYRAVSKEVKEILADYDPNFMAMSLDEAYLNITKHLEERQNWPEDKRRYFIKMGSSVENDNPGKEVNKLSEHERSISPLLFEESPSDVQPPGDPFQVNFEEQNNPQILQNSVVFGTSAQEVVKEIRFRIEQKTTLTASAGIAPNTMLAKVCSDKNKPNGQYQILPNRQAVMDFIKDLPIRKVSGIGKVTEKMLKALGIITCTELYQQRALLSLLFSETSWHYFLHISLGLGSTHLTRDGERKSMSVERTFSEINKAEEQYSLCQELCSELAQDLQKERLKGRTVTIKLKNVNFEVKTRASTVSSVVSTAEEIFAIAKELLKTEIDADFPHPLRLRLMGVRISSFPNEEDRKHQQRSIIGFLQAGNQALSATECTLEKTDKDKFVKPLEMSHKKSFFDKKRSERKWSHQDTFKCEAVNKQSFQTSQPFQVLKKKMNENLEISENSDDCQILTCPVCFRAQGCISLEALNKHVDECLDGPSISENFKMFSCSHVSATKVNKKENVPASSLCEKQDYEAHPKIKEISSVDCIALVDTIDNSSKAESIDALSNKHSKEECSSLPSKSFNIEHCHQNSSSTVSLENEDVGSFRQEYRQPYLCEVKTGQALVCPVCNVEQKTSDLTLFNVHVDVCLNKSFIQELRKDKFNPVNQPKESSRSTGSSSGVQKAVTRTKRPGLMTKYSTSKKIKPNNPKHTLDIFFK

Question: For `CC(C)(O)C(O)COc1c2ccoc2cc2oc(=O)ccc12` (stereo not drawn), which Potency is on record?
Answer: inconclusive: 89.1 µM [inhibitor, partial curve, poor fit]

Question: `Cc1ccc(NC(=O)CN2C(=O)S/C(=C\c3ccc(-c4cccc(C(=O)O)c4C)o3)C2=O)cc1C` was tested. Which Potency did it give?
Answer: active: 89.1 µM

Question: With `C=CCc1cc(/C=C/c2nc(O)c([N+](=O)[O-])c(=O)[nH]2)cc(OC)c1O` as the compound, how does the Potency read?
Answer: active: 79.4 µM

Question: Which “activity, negative = inhibition” value does the source give for `O=C(NCc1ccccn1)c1ccc(CNS(=O)(=O)c2ccc(F)cc2)cc1` here?
Answer: inactive: -23.4% [at 60.1 µM]

Question: `COc1cc(/C=N/NC(N)=O)ccc1OCC(=O)Nc1ccc(C)c(C)c1` was tested. Which Potency did it give?
Answer: active: 89.1 µM

Question: For `C=CCSC1=N/C(=C\c2cc(OCC)c(OC(C)=O)c([N+](=O)[O-])c2)C(=O)S1`, which Potency is on record?
Answer: active: 31.6 µM

Question: How did the Potency turn out when `CCOC(=O)C1CCCN(C(=O)c2cc(-c3ccco3)nc3ccccc23)C1` (stereo not drawn) was run?
Answer: active: 22.4 µM

Question: For `Cn1c(=O)c2[nH]c(CNCc3ccccc3Cl)nc2n(C)c1=O`, which Potency is on record?
Answer: inconclusive: 100 µM [inhibitor, partial curve, poor fit]

Question: With `CCN(CC)S(=O)(=O)c1nnc(NC(=O)c2ccc(Br)cc2)s1` as the compound, how does the “activity, negative = inhibition” value read?
Answer: inactive: -3.54%

Question: `Cc1nnc(NC(=O)CCSCCC(=O)Nc2nnc(C)s2)s1` was tested. Which Potency did it give?
Answer: active: 79.4 µM

Question: With `CCOC(=O)c1c(C)[nH]c(C(=O)COC(=O)[C@H](C)N2C(=O)C3CCCCC3C2=O)c1C` (stereo partly drawn) as the compound, how does the Potency read?
Answer: inconclusive: 100 µM [inhibitor, single point]

Question: How did the “activity, negative = inhibition” value turn out when `C=CCN(CC(=O)c1sc(C(=O)OCC)nc1C)c1cccc(Br)c1` was run?
Answer: inactive: -27.1%

Question: `CCNC(=S)N/N=C/c1cccc(/C=N/NC(=S)NCC)c1` was tested. Which Potency did it give?
Answer: inconclusive: 89.1 µM [inhibitor, partial curve, poor fit]

Question: `Cc1ccc(S(=O)(=O)CCC(=O)N(C)C2CCCCC2)cc1` was tested. Which “activity, negative = inhibition” value did it give?
Answer: inactive: -6.71%

Question: For `COc1ccc(C2=CCCC2)c(OC)c1`, which Potency is on record?
Answer: inconclusive: 112 µM [inhibitor, partial curve, poor fit]

Question: How did the Potency turn out when `O=C(O)c1cccc(Cn2c(Cl)c(/C=N/Nc3ccccc3)sc2=O)c1` was run?
Answer: inconclusive: 89.1 µM [inhibitor, partial curve, poor fit]

Question: How did the Potency turn out when `COc1ccc(-c2nc3n(n2)C(=O)CC(c2ccco2)S3)cc1` (stereo not drawn) was run?
Answer: inconclusive: 89.1 µM [inhibitor, single point]

Question: `O=C(NCCc1ccccc1)c1ccc2c(=O)[nH]c3c(C(=O)NCC4CCCO4)sc(=S)n3c2c1` (stereo not drawn) was tested. Which Potency did it give?
Answer: inconclusive: 100 µM [inhibitor, partial curve, poor fit]

Question: How did the “activity, negative = inhibition” value turn out when `CCOC(=O)C1=C(COC(=O)C2(C)CC2(Cl)Cl)NC(=O)NC1c1ccccc1` (stereo not drawn) was run?
Answer: inactive: 16.4%

Question: Which Potency does the source give for `Cc1cccn2c(=O)c(/C=C(\C#N)c3nc4ccccc4n3C)c(Oc3ccc(Br)cc3)nc12` here?
Answer: inconclusive: 79.4 µM [inhibitor, partial curve, poor fit]

Question: Which Potency does the source give for `C[C@@H]1O[C@@H](Oc2c(-c3cc(O)c(O)c(O)c3)oc3cc(O)cc(O)c3c2=O)[C@H](O)[C@H](O)[C@H]1O` here?
Answer: active: 25.1 µM and active: 1.68 µM

Question: How did the Potency turn out when `C/C(CC(=O)Nc1ccc(Cl)c(C(F)(F)F)c1)=N\NC(=O)c1cc2ccccc2cc1O` was run?
Answer: inconclusive: 100 µM [inhibitor, single point]

Question: How did the Potency turn out when `Cc1ccc(C2CC(=O)Oc3cc(C)c(Cl)cc32)cc1` (stereo not drawn) was run?
Answer: inconclusive: 100 µM [inhibitor, partial curve, poor fit]

Question: `CCOc1ccc(S(=O)(=O)N2CCCC(C(=O)N3CCOCC3)C2)cc1C` (stereo not drawn) was tested. Which “activity, negative = inhibition” value did it give?
Answer: inactive: -2.55%

Question: With `CCOCCCn1c(=N)c(S(=O)(=O)c2ccc(C)cc2)cc2c(=O)n3cccc(C)c3nc21` as the compound, how does the Potency read?
Answer: inconclusive: 89.1 µM [inhibitor, single point]

Question: For `O=C(c1ccco1)N1CCN(Cc2ccc(Cl)cc2)CC1`, which “activity, negative = inhibition” value is on record?
Answer: inactive: -0.225%

Question: `O=S(=O)(NCCc1ccccc1)c1ccc(N2CCCCS2(=O)=O)cc1` was tested. Which “activity, negative = inhibition” value did it give?
Answer: inactive: -8.79% [at 60.1 µM]

Question: How did the Potency turn out when `COc1ccc2nc3sc(C(=O)Nc4ccccc4F)cc3cc2c1` was run?
Answer: inconclusive: 89.1 µM [inhibitor, single point]

Question: With `CCc1ccc(S(=O)(=O)c2cn(C)c3cc(N4CCCCC4C)c(F)cc3c2=O)cc1` (stereo not drawn) as the compound, how does the Potency read?
Answer: inconclusive: 89.1 µM [inhibitor, single point]

Question: How did the Potency turn out when `CN(C)c1ccc(C=O)c(O)c1` was run?
Answer: inconclusive: 56.2 µM [inhibitor, partial curve, poor fit]

Question: `CN(C)c1ccc(/C=C/c2ccnc3ccccc23)cc1O` was tested. Which “activity, negative = inhibition” value did it give?
Answer: inactive: 4.51%

Question: `O=C(COC(=O)c1cc(Cl)nc(Cl)c1)NC1CCCCCC1` was tested. Which Potency did it give?
Answer: inconclusive: 89.1 µM [inhibitor, partial curve, poor fit]

Question: `CCCCN1Cc2c(nc3cc(-c4ccco4)[nH]n3c2=O)C1=O` was tested. Which Potency did it give?
Answer: inconclusive: 89.1 µM [inhibitor, single point]

Question: `Cc1ccc(C)c(OCCC(=O)OCC(=O)NC(=O)NC2CCCC2)c1` was tested. Which “activity, negative = inhibition” value did it give?
Answer: inactive: -7.18%

Question: For `CCCSc1ccc([C@@H]2[C@H]3C(=O)N(CC)C(=O)[C@H]3[C@]3(C(=O)OC)CCCCN23)cc1OC`, which “activity, negative = inhibition” value is on record?
Answer: inactive: -8.76%

Question: With `COC(=O)C1C(=O)C(C(=O)/C=C/c2ccccc2)C(=O)CC1(C)C` (stereo not drawn) as the compound, how does the Potency read?
Answer: inconclusive: 89.1 µM [inhibitor, single point]

Question: For `C/C(=N\NC(=O)c1cc2ccccc2cc1O)c1cc2ccccc2o1`, which Potency is on record?
Answer: active: 79.4 µM

Question: With `C=C(C)C(=O)Nc1cccc(C2=NOC3(C2)C[C@H](C(N)=O)N(C(=O)c2ccccc2)C3)c1` (stereo partly drawn) as the compound, how does the Potency read?
Answer: inconclusive: 56.2 µM [inhibitor, partial curve, poor fit]

Question: Which Potency does the source give for `COc1ccc(NC(=O)c2ccc(-c3ccc(-c4noc(C)n4)cc3C)cc2)cc1OCCN(C)C` here?
Answer: inconclusive: 8.91 µM [inhibitor, partial curve, poor fit]

Question: `Cc1ccc(NS(=O)(=O)c2cccc(C(=O)OCC(=O)NCc3ccco3)c2)cc1` was tested. Which Potency did it give?
Answer: inconclusive: 89.1 µM [inhibitor, partial curve, poor fit]

Question: With `COC(=O)C1=C(C(=O)OC)[C@@H]2N(C)c3ccc(OC)cc3[C@@]23C[C@@H](C(=O)OC)N(C(=O)c2cc(C)oc2C)C3=N1` as the compound, how does the “activity, negative = inhibition” value read?
Answer: inactive: -9.44%

Question: `CCCc1cc(-c2ccc3c(c2)COc2c4ccccc4nn2-3)on1` was tested. Which Potency did it give?
Answer: inconclusive: 79.4 µM [inhibitor, partial curve]

Question: How did the “activity, negative = inhibition” value turn out when `Cn1cccc1CNC(=O)Nc1ccccc1` was run?
Answer: inactive: -1.91%
